Results reported in the supplement of paper PMC11417369.
This is one part of the list.

tested on: PfSIP2 AP2 domain 1 (GST-tagged); assay: gcPBM binding intensity (ln(normalized median fluorescence intensity)); higher = stronger DNA binding
In short: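 The highest Masliner-normalised natural-log median intensity across replicate spots of either probe orientation is reported as binding intensity. GST-tagged P. falciparum DNA-binding domains expressed in E. coli were applied for 1 h to an Agilent 4 × 180k array of primer-extended double-stranded 36-bp intergenic genomic probes plus negative controls, and bound protein was detected with Alexa488 anti-GST antibody and scanned at 488 nm.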

Compared with “TTCTTCAATATATTCTTACACACTTAAAAAAAAAAA [CACACA_site228]”, GTATATAAATAAATAGTGCATTATTAAAAATAATGT is higher in “gcPBM binding intensity (ln)” value: 7.5 for the first, 9.36 for the second.

First: TTTTTTTTTTTTTATTGTACATACTTTTAAATATAT [XGTACX_site4303]
Second: ATATATTTATATTTTTGTACCCAAAATTGTTTGATG [XGTACX_site3581]
The “gcPBM binding intensity (ln)” value of the first is higher: 6.98 for the first, 6.95 for the second.

First: ATTGAGGCTGGTTATATAATAATTTTATTATTTTAG [GTGCAC_negctrl_site409]
Second: TAAAAGTTGAAGCACACACACAAAAGAAATACAATA [CACACA_site6649]
The “gcPBM binding intensity (ln)” value of the first is lower: 6.62 for the first, 6.91 for the second.

Going from “TTAAAGCTTGCATATACACACATACATAAATTCATA [CACACA_site7208]” to “GTATACAACATATGAACACACAAAATATTTTTTTTT [CACACA_site2928]”, the “gcPBM binding intensity (ln)” value rises from 6.95 to 7.

Compared with “TATCTCCACAAAAGATGTACTCATATTAATTTATAA [XGTACX_site3535]”, “TATGAAAAGTAAAGTACACACAGGAAAAAAAAAAAA [CACACA_site1749]” is lower in “gcPBM binding intensity (ln)” value: 7.11 for the first, 7.03 for the second.

First: TTTGTTATATTTAATACACACATATTATAAACACAT [CACACA_site7703]
Second: ATAAATAAAGGACACACACACACACTAATAAAAAAA [CACACA_site8840]
The “gcPBM binding intensity (ln)” value of the first is lower: 7.08 for the first, 7.23 for the second.

First: TATATAATATATTTATGTACTCACAATGGGGTCTAC [XGTACX_site2691]
Second: AAATTACTGTAAAAAAGTACAGAAGTTCTTATTTTT [XGTACX_site7416]
The “gcPBM binding intensity (ln)” value of the first is higher: 7.29 for the first, 6.97 for the second.

First: GTTCATATAATAAAATGTACATAATATATTATATAT [XGTACX_site7623]
Second: AGTTTAATTTTGTATACACACATTTGAATTATTAAT [CACACA_site7625]
The “gcPBM binding intensity (ln)” value of the first is lower: 7.18 for the first, 7.25 for the second.

First: TATATCTATTTCAAATGTACTTATATGATTCTTATA [XGTACX_site6277]
Second: AGCTACAAAAATTAATATATATATGTATAGTTATAC [TGCATGCA_negctrl_site531]
The “gcPBM binding intensity (ln)” value of the first is lower: 6.77 for the first, 6.81 for the second.

Compared with “GTATTATATTTTAATACACACCCAAATATTAAAAAG [CACACA_site8968]”, “AAATGTTCAGAAACTATTATAAAAATGGAATAATAT [CACACA_negctrl_site1544]” is lower in “gcPBM binding intensity (ln)” value: 7.1 for the first, 6.98 for the second.

Going from “TGCCATCATATCATAGGTACACAAACATATAAAGAA [XGTACX_site4137]” to “CTTAATATGGATATTGCATGTAGAACATGAACAATA [TGCATGCA_site760]”, the “gcPBM binding intensity (ln)” value falls from 7.47 to 6.77.

Compared with “TAAATATTATATTTATGTACATAAGTTTTTTTTAAT [XGTACX_site3559]”, “TTATGCTCAAAGAAAAGTACATAAATAAAAGTATAT [XGTACX_site7365]” is higher in “gcPBM binding intensity (ln)” value: 7.01 for the first, 7.2 for the second.

First: TTAACAAATAAATGCACACATATATATAAATAATAT [CACACA_site28]
Second: TATATGTAGATTAAACGTACTTACAACGGAATTATC [XGTACX_site3036]
The “gcPBM binding intensity (ln)” value of the first is higher: 7.24 for the first, 7.2 for the second.

Compared with “AAAAAAAAGAATTAGGCACACAATTTTAATATAGGA [CACACA_site1522]”, “GCATACATCAAGCACACACACACACGCACACGCACA [CACACA_site6311]” is higher in “gcPBM binding intensity (ln)” value: 6.77 for the first, 7.98 for the second.

First: ACTACGAATGGTAGAGTGCAGTCTGGAGAAGAGTAC [GTGCAC_site9685]
Second: GTGAAGTTCAAAATATGTACTTATGTATGTATTTTT [XGTACX_site165]
The “gcPBM binding intensity (ln)” value of the first is higher: 9.02 for the first, 6.94 for the second.

Going from “TTATGTTTCATAAAAAATTAATCAAACATATATAAG [CACACA_negctrl_site666]” to “TTATGGATGGACAATAATAAAATTTTTACTTTTATT [CACACA_negctrl_site908]”, the “gcPBM binding intensity (ln)” value rises from 6.77 to 6.91.

Going from “AAAAAAAAAATTATATATATATCCCTTATTTTTTCT [TGCATGCA_negctrl_site151]” to “TCATATATATTGAAATGTACTTATTTTTTCCTCATA [XGTACX_site6526]”, the “gcPBM binding intensity (ln)” value falls from 6.94 to 6.85.

First: CATACACAGAAACACACACACATATATACATATATA [CACACA_site1094]
Second: TATACATAGAAACACACACACATAAATAAATATATA [CACACA_site1342]
The “gcPBM binding intensity (ln)” value of the first is higher: 7.17 for the first, 7.07 for the second.

First: CCTTAAATAATATATTCACACAATATAACAAAAATT [CACACA_site4892]
Second: TGGTATATAAAACACACACACATATGTATATATATA [CACACA_site926]
The “gcPBM binding intensity (ln)” value of the first is lower: 6.97 for the first, 8.39 for the second.

Going from “ATATGTTTTAAGTGTACACATATAATGTATTTTGTT [CACACA_site4929]” to “TATTATGCTATTTAATGTACGGAATTTATATATATA [XGTACX_site564]”, the “gcPBM binding intensity (ln)” value rises from 7.36 to 7.68.

Going from “AACCTATCTATAGGAACAATATATATATATATAATT [CACACA_negctrl_site1707]” to “TTGCTCATTGAAATTATACACACCAAATATATAAAT [CACACA_site2482]”, the “gcPBM binding intensity (ln)” value rises from 7.05 to 7.13.

Compared with “AAAATATATAAACGCACATATATTTATGTATATATA [CACACA_negctrl_site163]”, “TAAAAAAAAACATGATGTACATAAAATTTTTTACTT [XGTACX_site7056]” is lower in “gcPBM binding intensity (ln)” value: 7.16 for the first, 6.85 for the second.
